Assay results taken from the supplement of paper PMC3334620.
The full ranking holds about 33,000 sequences; the median of “E-score (-0.5 to 0.5)” is about -0.035, and the highest 2% start at about 0.34. This is one part of the list.

Target: T1, Mot3 (UniProt P54785)
T1 sequence: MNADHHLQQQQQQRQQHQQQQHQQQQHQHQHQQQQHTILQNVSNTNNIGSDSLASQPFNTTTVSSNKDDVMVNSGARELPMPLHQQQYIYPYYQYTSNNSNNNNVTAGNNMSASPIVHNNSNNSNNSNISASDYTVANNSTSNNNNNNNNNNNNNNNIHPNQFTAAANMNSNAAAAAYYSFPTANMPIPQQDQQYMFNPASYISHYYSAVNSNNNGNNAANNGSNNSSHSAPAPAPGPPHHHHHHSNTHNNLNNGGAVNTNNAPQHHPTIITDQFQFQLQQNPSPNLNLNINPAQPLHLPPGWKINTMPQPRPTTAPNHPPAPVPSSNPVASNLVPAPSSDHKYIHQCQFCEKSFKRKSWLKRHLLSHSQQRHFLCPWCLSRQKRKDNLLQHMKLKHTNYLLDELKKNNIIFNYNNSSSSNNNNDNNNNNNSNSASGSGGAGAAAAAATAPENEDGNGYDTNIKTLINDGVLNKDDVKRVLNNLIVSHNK
Assay: PBM E-score (8-mer binding enrichment) (E-score (-0.5 to 0.5)); higher = stronger / more preferred TF binding; most listed sequences are background and not binding sites
Settings: protein concentration: 200 nM; construct: GST-full length
How it was run: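 Each ungapped eight-base word and its reverse complement, pooled, received an E-score from the Universal PBM Analysis Suite. Underlying scans, normalised with masliner, recorded fluorescent anti-GST bound to GST-tagged yeast transcription factors. These were applied at about 100-200 nM to universal all-10-mer Agilent arrays double-stranded by primer extension.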

| Sequence | PBM E-score |
| --- | --- |
| GGTTTAAC | 0.178 |
| CTGGGAAC | -0.0681 |
| ACTTTGGA | -0.0655 |
| CTTAAGCC | -0.114 |
| CCCAACGC | -0.095 |
| ACTTCACA | 0.177 |
| CAACATAC | 0.179 |
| GAGTGCGA | -0.152 |
| AATTGTAC | 0.144 |
| ACGGCCCG | -0.171 |
| CAGAGCAG | -0.0143 |
| ACAAGAAT | 0.188 |
| GACACCTA | 0.0394 |
| AATCTACC | 0.0926 |
| GTCTGTTA | 0.178 |
| GTTCATAA | -0.0429 |
| CTGTGGTA | -0.0245 |
| AACCTTAC | 0.0962 |
| GCCAGAAA | -0.0567 |
| ACTGTCCG | -0.0105 |
| TACAACAA | 0.301 |
| CGCTGAGA | -0.199 |
| TGCGTACA | 0.257 |
| CTATGAAA | -0.162 |
| ATATAACA | 0.295 |

| Sequence | PBM E-score |
| --- | --- |
| CCATATAC | 0.104 |
| CAGCAGTC | -0.293 |
| ACACTTCT | 0.133 |
| AGGGCGGC | -0.112 |
| ATTGATAG | 0.112 |
| AGATAATC | -0.0261 |
| GATCCAGA | -0.0452 |
| CAGCGATA | -0.0991 |
| CTCTGGTC | -0.215 |
| AAGGCAGA | 0.0903 |
| GTCTCCAC | -0.115 |
| ACGTACTC | 0.102 |
| CCCTATAA | -0.151 |
| TCCATAAA | -0.17 |
| CGATCCTC | -0.175 |
| AATGGTTA | 0.15 |
| CCACGCCG | -0.206 |
| AGCCATAT | -0.215 |
| ATCGTGCA | 0.122 |
| ATCGAGAC | -0.144 |
| CGTGTGAA | 0.309 |
| GCGATCTA | -0.138 |
| CCAAGGAG | -0.129 |
| CAGGTTCA | 0.136 |
| CTGGACTA | -0.109 |

| Sequence | PBM E-score |
| --- | --- |
| CTTCGCGC | -0.0309 |
| CAACACGG | 0.302 |
| ACGGACAC | 0.0821 |
| CTCCTCGA | -0.19 |
| CCATCGAG | 0.0666 |
| TATTAATA | 0.151 |
| CCGCTCAG | 0.0688 |
| CCAACTAC | 0.0858 |
| AAGATTCA | 0.124 |
| AAGACTAT | -0.00527 |
| CAGCCTAA | 0.00627 |
| AAGGGACT | -0.0592 |
| GACACAGA | -0.043 |
| CGGGTAAA | 0.151 |
| AGCGCGGC | -0.0474 |
| CCCGGGTC | -0.231 |
| ATTTGGTA | -0.0233 |
| CGATTAAA | 0.0951 |
| GATCTGAC | -0.0696 |
| CTACTCTA | -0.00664 |
| ATTTTTGA | 0.0121 |
| AAGTGGTA | 0.0297 |
| ACCGAGGG | -0.287 |
| CCTCACCA | -0.0744 |
| AAGAAATG | 0.0181 |

| Sequence | PBM E-score |
| --- | --- |
| AGGGCTCG | -0.209 |
| ATATGCAA | -0.0574 |
| ATATTATG | 0.196 |
| GTCGCTAA | -0.0236 |
| ACTTAATG | 0.0209 |
| AACTATTA | 0.124 |
| CCAACGAG | -0.157 |
| CTGGTCCC | -0.265 |
| CTATTGAG | -0.129 |
| GATTAATC | -0.0124 |
| AGCGTTCC | 0.181 |
| CATCCTCG | 0.00911 |
| AATCCCAA | -0.0822 |
| ATCAAACA | 0.0614 |
| ATATTGAT | -0.152 |
| CCTCGTTC | -0.11 |
| TATTACGA | 0.209 |
| ACGCATAT | 0.174 |
| ACTGGCAT | -0.188 |
| CAATTATG | 0.135 |
| CGGGGCCA | -0.416 |
| CACACCTA | 0.0255 |
| ACGGAGAT | -0.0691 |
| AAATTAAC | 0.128 |
| AGCCGATG | -0.228 |

| Sequence | PBM E-score |
| --- | --- |
| ATTAGACA | 0.027 |
| GGGACCAC | -0.274 |
| AGGTACTG | 0.258 |
| TTTCGAAA | 0.00655 |
| ACCGAATC | -0.00094 |
| ACAAGCGC | 5e-05 |
| CTGCCACC | -0.184 |
| ACGCATAG | 0.147 |
| CTCGGAAC | -0.185 |
| ATCGTGTA | 0.39 |
| CTGTTCTA | 0.0629 |
| CATGATAA | 0.277 |
| CGGCTCAG | -0.217 |
| TGTAGACA | 0.278 |
| CAGTCGCA | -0.118 |
| ACGCATCT | 0.106 |
| GCATGTCC | 0.0392 |
| ACGAACGA | 0.0589 |
| AGAATATC | -0.096 |
| AGGAGAAT | -0.161 |
| AGTTGATC | -0.00973 |
| ACTGCCAA | -0.0121 |
| AACCCCTG | -0.163 |
| TTCGCAAA | 0.0552 |
| GCAACGAA | 0.177 |

| Sequence | PBM E-score |
| --- | --- |
| ATCTAAAC | -0.0106 |
| AAGGTCTC | -0.0648 |
| AACTGAGC | -0.348 |
| CCGATAGG | -0.0164 |
| CGTCATGC | -0.095 |
| ATCAATGG | -0.263 |
| AGACGTGA | 0.0416 |
| AGACATGG | 0.139 |
| GTTTGTGA | 0.0357 |
| CATGCGCC | 0.0452 |
| CCCAGCGC | -0.0444 |
| AATTGCAA | -0.0353 |
| AATTGATG | 0.182 |
| ATGACGTC | -0.114 |
| AGTTCATG | -0.00682 |
| CAATCAGC | -0.109 |
| AACAGGTT | 0.0771 |
| GAGAGAGC | -0.267 |
| CGGCCGAA | -0.249 |
| CTCAAGCC | -0.236 |
| CGGTGGAG | -0.26 |
| GGGATCAA | -0.0523 |
| GACGGACA | -0.146 |
| AGCCTTAT | -0.0161 |
| CACAACGC | 0.171 |

| Sequence | PBM E-score |
| --- | --- |
| CCTCCCAG | -0.03 |
| ATTATTTC | 0.183 |
| AGGCCGTG | 0.0145 |
| AAGTAATT | 0.201 |
| GGTAGCAC | -0.16 |
| GTTTCGGA | 0.0513 |
| AGCATACA | 0.207 |
| GAATGCGA | -0.14 |
| CTATCCAG | -0.157 |
| AGTAGCTA | 0.0219 |
| GGTGGGAA | -0.139 |
| CCTCCGCC | -0.179 |
| CACGCGCA | 0.0291 |
| AATAGCTG | -0.0893 |
| ATTTCAAA | 0.0112 |
| AATTTCCG | -0.0949 |
| ATATCAGG | 0.00966 |
| ACCCTCAA | -0.154 |
| GGGACCCA | -0.233 |
| CGAGATGC | -0.114 |
| ATCCTTGA | -0.0317 |
| TGAAACCA | 0.0238 |
